In the supplement of paper PMC4604168 (melanoma cell lines):
This is one part of the list. Many values rest on one well or one pass, so single values are uncertain.

Test system: COLO792
Assay: cell count relative to DMSO control; melanoma cells; higher = more viable cells
Conditions: library dose: standard library concentration; 72 h
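Further: cells treated in 1,536-well plates, then fixed and DAPI-stained, with nuclei counted from automated high-throughput microscope images.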

| SMILES | cell count [%] |
| --- | --- |
| O=C(O)[C@@H]1[O][Sb](=[O])([O][Sb]2(=[O])[O][C@H]([C@H](O)CO)[C@H](O)[C@H](C(=O)O)[O]2)[O][C@H]([C@H](O)CO)[C@@H]1O (stereo partly specified) [stibogluconate] + COc1ccc(Cl)c(Nc2nc3ccccc3nc2NS(=O)(=O)c2cccc(NC(=O)C(C)(C)N)c2)c1 [XL147] (first compound 10 µM, partner dose 4 µM) | 91.2 |
| Cn1nnc2c(C(N)=O)ncn2c1=O [temozolomide] + O=C(O)c1ccc(-c2c[nH]c3ncc(-c4ccccc4)cc23)cc1C1CCCC1 [GSK650394] (first compound 10 µM, partner dose 0.8 µM) | 86.7 |
| Cn1nnc2c(C(N)=O)ncn2c1=O [temozolomide] + CCN(CC)CCCCNc1ncc2cc(-c3cc(OC)cc(OC)c3)c(NC(=O)NC(C)(C)C)nc2n1 [PD173074] (first compound 10 µM, partner dose 0.5 µM) | 81 |
| O=C(O)[C@@H]1[O][Sb](=[O])([O][Sb]2(=[O])[O][C@H]([C@H](O)CO)[C@H](O)[C@H](C(=O)O)[O]2)[O][C@H]([C@H](O)CO)[C@@H]1O (stereo partly specified) [stibogluconate] + OCc1c[nH]c2ccccc12 [Indole-3-carbinol] (first compound 10 µM, partner dose 4 µM) | 107 |
| Cn1nnc2c(C(N)=O)ncn2c1=O [temozolomide] + O=C(Nc1cccc(Cl)c1)Nc1ncc(CCNc2ncnc3ccsc23)s1 [SNS314] (first compound 10 µM, partner dose 0.004 µM) | 62.8 |
| O=C(Nc1cc(C(F)(F)F)cc(C(F)(F)F)c1)c1cc(Cl)ccc1O + Cc1cc(N2CCOCC2)cc2[nH]c(-c3c(NC[C@@H](O)c4cccc(Cl)c4)cc[nH]c3=O)nc12 [BMS536924] (first compound 0.08 µM, partner dose 1 µM) | 56.8 |
| O=C(O)c1ccc2c(c1)nc(Nc1cccc(Cl)c1)c1ccncc12 + Cn1cncc1[C@@](N)(c1ccc(Cl)cc1)c1ccc2c(c1)c(-c1cccc(Cl)c1)cc(=O)n2C [tipifarnib] (first compound 2 µM, partner dose 0.05 µM) | 47.4 |
| Cc1cc(N2CCOCC2)cc2[nH]c(-c3c(NC[C@@H](O)c4cccc(Cl)c4)cc[nH]c3=O)nc12 + COc1cc2c(Oc3ccc4[nH]c(C)cc4c3F)ncnc2cc1OCCCN1CCCC1 [cediranib] (first compound 1 µM, partner dose 2 µM) | 35.2 |
| O=C(Nc1cc(C(F)(F)F)cc(C(F)(F)F)c1)c1cc(Cl)ccc1O + Cc1ccc(Nc2nccc(N(C)c3ccc4c(C)n(C)nc4c3)n2)cc1S(N)(=O)=O [Pazopanib] (first compound 0.08 µM, partner dose 2 µM) | 109 |
| O=C(O)c1ccc2c(c1)nc(Nc1cccc(Cl)c1)c1ccncc12 + O=C(CCCCCCC(=O)Nc1ccccc1)NO [vorinostat] (first compound 2 µM, partner dose 0.4 µM) | 69 |
| Cn1nnc2c(C(N)=O)ncn2c1=O [temozolomide] + NC(=O)Nc1cc(-c2cccc(F)c2)sc1C(=O)N[C@H]1CCCNC1 [AZD7762] (first compound 10 µM, partner dose 0.1 µM) | 48 |
| O=C(Nc1cc(C(F)(F)F)cc(C(F)(F)F)c1)c1cc(Cl)ccc1O + NC1(c2ccc(-c3nc4ccn5c(=O)[nH]nc5c4cc3-c3ccccc3)cc2)CCC1 [MK2206] (first compound 0.08 µM, partner dose 2 µM) | 50.7 |
| O=C(O)[C@@H]1[O][Sb](=[O])([O][Sb]2(=[O])[O][C@H]([C@H](O)CO)[C@H](O)[C@H](C(=O)O)[O]2)[O][C@H]([C@H](O)CO)[C@@H]1O (stereo partly specified) [stibogluconate] + Nc1cccc2c1CN(C1CCC(=O)NC1=O)C2=O [lenalidomide] (first compound 10 µM, partner dose 5 µM) | 93.5 |
| O=C(O)[C@@H]1[O][Sb](=[O])([O][Sb]2(=[O])[O][C@H]([C@H](O)CO)[C@H](O)[C@H](C(=O)O)[O]2)[O][C@H]([C@H](O)CO)[C@@H]1O (stereo partly specified) [stibogluconate] + Nc1nc(F)nc2c1ncn2[C@@H]1O[C@H](CO)[C@@H](O)[C@@H]1O [fludarabine] (first compound 10 µM, partner dose 1 µM) | 59.2 |
| O=C(O)c1ccc2c(c1)nc(Nc1cccc(Cl)c1)c1ccncc12 + OCc1c[nH]c2ccccc12 [Indole-3-carbinol] (first compound 2 µM, partner dose 4 µM) | 75.2 |
| Cn1nnc2c(C(N)=O)ncn2c1=O [temozolomide] + Cn1cncc1[C@@](N)(c1ccc(Cl)cc1)c1ccc2c(c1)c(-c1cccc(Cl)c1)cc(=O)n2C [tipifarnib] (first compound 10 µM, partner dose 0.05 µM) | 76.5 |
